In all, about 16,000 sequences were measured (“Z-score”: median about -0.37, highest 2% from about 3.1 on). The list shows a part of the results.
What follows are sequences tested on RBM10 RRM1-ZnF-RRM2 (GST-tagged construct) (assay: RNAcompete 7-mer binding Z-score; higher = stronger binding preference).
Description: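 RNAcompete: 20 pmol GST-tagged RBM10 RNA-binding constructs were incubated with a designed RNA pool of about 241,000 sequences up to 41 nt (1.5 nmol) on glutathione beads for 30 min at 4 °C and washed. Bound RNAs were identified by microarray hybridisation. Each RNA 7-mer is scored by a one-sided Z-score of its enrichment, computed over probes that contain the 7-mer within longer pool sequences.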

| Sequence | RNAcompete 7-mer binding Z-score |
| --- | --- |
| ACCCCCC | -0.329 |
| AUGCCAA | -0.5 |
| GAAAGCG | 0.858 |
| CAGGGCG | 2.41 |
| AAUUUAG | -0.205 |
| UAUAAAG | 0.0386 |
| ACUAGGC | -0.235 |
| AGACUGA | -0.49 |
| UCAUAGA | -0.449 |
| GAGGUUA | 1.77 |
| AAAUCAA | -0.195 |
| UCGACGG | 0.243 |
| UCUUGCU | -0.876 |
| GGGUCAG | 2.73 |
| UUGUUAU | -0.581 |
| GCGACGC | -0.253 |
| GGCCAGG | 1.32 |
| UAGCUUU | -0.719 |
| GACUGCU | -0.887 |
| CCCGCUA | -0.832 |
| GGAAGGU | 3.94 |
| GUGGUCU | 0.264 |
| AGGUUCG | 0.545 |

| Sequence | RNAcompete 7-mer binding Z-score |
| --- | --- |
| GCGACUC | -0.533 |
| CCAUUAG | -0.42 |
| ACACGUA | -0.187 |
| CGUCCCU | -0.759 |
| UCAAGUA | -0.409 |
| AAAUUGU | -0.293 |
| ACGAAUC | -0.497 |
| UUACUUC | -0.643 |
| CCGAGGA | 0.563 |
| CUAUUUU | -1.05 |
| CGAGACC | -0.413 |
| CUAUUCC | -0.89 |
| UCGUACC | -0.581 |
| AACCGAA | -0.439 |
| UUUUACC | -0.876 |
| UAGUUCU | -0.817 |
| GUGAGGG | 4 |
| UUGGCAU | -0.187 |
| CAGUAUU | -0.537 |
| GGAGCCG | 0.836 |
| UGACUUC | -0.755 |
| GAACCUC | -0.883 |
| UUGUGUG | 0.0604 |

| Sequence | RNAcompete 7-mer binding Z-score |
| --- | --- |
| AAACUAA | -0.508 |
| CGAGGAG | 1.67 |
| GAGGGUC | 1.39 |
| CUAUAUU | -0.825 |
| UAACGGG | 2.01 |
| ACUAUUG | -0.606 |
| UUCGAUA | -0.635 |
| GGUUACC | 0.632 |
| GCAGCAU | -0.253 |
| AACUACG | -0.42 |
| AAUAACU | -0.446 |
| GCCGGGG | 1.4 |
| CCUAAAC | -0.865 |
| GUACUAU | -0.0962 |
| AGAGCUC | -0.85 |
| GCGAAAG | 0.803 |
| UCCCAGC | -0.643 |
| UCGAACU | -0.694 |
| UGGCAAG | 1.1 |
| UGAUACA | 0.0459 |
| ACUAUGG | 0.698 |
| UCCACCC | -0.617 |
| CCUCGGA | -0.639 |

| Sequence | RNAcompete 7-mer binding Z-score |
| --- | --- |
| ACUACAA | -0.581 |
| ACUCAGU | -0.661 |
| UAGUUUU | -0.581 |
| GGAUGAU | 1.38 |
| GGCAUCA | 0.439 |
| CUUCAAA | -0.73 |
| CAAUCUU | -0.872 |
| UUCUGCC | -0.948 |
| CGCAAGU | -0.562 |
| GACCCAG | -0.541 |
| CAGGUGC | 1.24 |
| GAUGCGU | 0.0932 |
| UUAUUAA | -0.701 |
| ACCACUU | -0.781 |
| CACACCU | -0.581 |
| GCGGCGG | 2.05 |
| CUUUUAA | -0.814 |
| UUUCAUU | -0.632 |
| GUGCAUC | -0.278 |
| AUUCUUG | -0.785 |
| CCCCGCA | -0.679 |
| CCGUUUC | -0.923 |
| UUUUCGA | -0.621 |

| Sequence | RNAcompete 7-mer binding Z-score |
| --- | --- |
| AACUCUC | -0.799 |
| GGUUCGG | 1.44 |
| UCUUUUC | -0.73 |
| UUGUUGU | -0.384 |
| UACUUCG | -0.697 |
| GUGAAUA | 0.399 |
| AAUUCAU | -0.351 |
| GGGACAG | 2.88 |
| CAGCCGA | -0.719 |
| UGAAAAC | -0.431 |
| GUCCGAG | -0.0306 |
| CUCUAGU | -0.799 |
| GCCGGUU | -0.293 |
| UACCUCG | -0.675 |
| CGUUGUG | 0.0495 |
| CACGAGU | -0.0889 |
| CUGGCCA | -0.65 |
| CUAAAUC | -0.828 |
| CGCUUUA | -0.908 |
| GCUCUCA | -0.526 |
| CCCGUUA | -0.621 |
| UAAUUCC | -0.81 |
| CCCCCAU | -0.362 |

| Sequence | RNAcompete 7-mer binding Z-score |
| --- | --- |
| CCCACCA | -0.632 |
| CUUUCUA | -0.821 |
| GCCGGCA | -0.369 |
| CUGUUCA | -0.865 |
| CUGUGGU | 0.213 |
| AGGGGCG | 2.07 |
| AUAUGCG | 0.0969 |
| UUGCUGU | -0.548 |
| UGUAGGU | 1.89 |
| CUAGGCU | -0.606 |
| UUAGGGC | 1.22 |
| ACCACGC | -0.672 |
| CUGUUAU | -0.85 |
| UUAGAUC | -0.453 |
| AUUACGC | -0.264 |
| ACGGGGG | 3.19 |
| CCCGAAA | -0.839 |
| UUAACUU | -0.752 |
| GUGGCUA | 1.16 |
| UGAGAAA | 0.337 |
| GCAUGGC | 0.253 |
| CUCACCU | -0.912 |
| CGCACUU | -0.978 |

| Sequence | RNAcompete 7-mer binding Z-score |
| --- | --- |
| GAGCAGG | 2.84 |
| ACGCCCC | -0.715 |
| GAUCAUG | 0.392 |
| ACAUCAG | -0.191 |
| UUAGUAU | -0.296 |
| UCUAACC | -0.737 |
| CGGAGCU | 0.275 |
| AAAAACG | 0.0969 |
| CGAGCAG | 1.09 |
| AGAGCUU | -0.741 |
| UAAUUAU | -0.624 |
| CAUUACG | -0.147 |
| GAGCUUU | -0.708 |
| AACGAAU | -0.333 |
| UAAAUAU | -0.428 |
| UCAUUUA | -0.752 |
| UCAAAUU | -0.744 |
| GAUAGGA | 3.17 |
| CAUUUCU | -0.872 |
| GCAGUUC | -0.595 |
| AAUGUUG | 0.184 |
| CGCCAGU | -0.559 |
| CUAAAGC | -0.628 |

| Sequence | RNAcompete 7-mer binding Z-score |
| --- | --- |
| AGCGACU | -0.46 |
| AGCAGAU | 0.272 |
| CGAUCUG | -0.795 |
| CAAUCCU | -0.887 |
| GAGUAAG | 1.54 |
| AAGUGGU | 1.6 |
| AGAGUUU | -0.0379 |
| GGUCUGU | 0.0823 |
| UGUGGUU | 1.03 |
| CGGGUUU | 1.01 |
| UAACCUC | -0.679 |
| UCUCCUA | -0.879 |
| CUUCCGG | -0.635 |
| CGAGUUC | -0.69 |
| GGGCGUG | 2.84 |
| AGUAUCG | -0.00512 |
| GUUACCA | -0.0707 |
| CUGAACA | -0.795 |
| GAACUUA | -0.566 |
| CGAAGUU | -0.235 |
| CUAAGAG | -0.103 |
| UGUCCCC | -0.464 |

From the supplement of paper PMC5499739
